From the supplement of paper PMC11417369
± gives the standard deviation of the averaged measurements. The list shows a part of the results.

The sequences below were run on PfAP2-LT AP2 domain (GST-tagged) (assay: gcPBM binding intensity (ln(normalized median fluorescence intensity)); higher = stronger DNA binding).
Procedure, shortened: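 GST-fused DNA-binding domains of P. falciparum, expressed in E. coli, were applied at about 25 μg on average for 1 h to an Agilent 4 × 180k array of primer-extended double-stranded 36-bp intergenic genomic probes and negative controls. Binding intensity is the highest Masliner-normalised natural-log median intensity across replicate spots of either probe orientation, measured with Alexa488 anti-GST antibody and a 488 nm scan.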

Sequence | gcPBM binding intensity (ln)
ATATATATAATATGCGGTACACATTAATTAAATCAT [XGTACX_site5702] | 8.91 ± 0.42
TTATTTTATAATAAAAGTACACAAAAAAAAAAAAAA [XGTACX_site7668] | 8.38 ± 0.42
TAATTATGCAGACACACACACACACCCAACTAAAAA [CACACA_site2569] | 9.96 ± 0.23
ATATATTATATAAAGTGTACAAAAAAAATATATAAA [XGTACX_site8065] | 8.9 ± 0.45
CTATTTCATGGACACACACACACAAACAAACATATA [CACACA_site4696] | 9.9 ± 0.26
TTATTGCATTGTTTTTATAAAAAAAAAAAAAAAATT [XGTACX_negctrl_site104] | 8.36 ± 0.57
ATATATATTTTATTCACACATAAGATTATAAAACAT [CACACA_site5369] | 8.59 ± 0.39
TATGATATAATTATGTGTACACAATTTTTTTTTTTT [XGTACX_site1084] | 8.76 ± 0.5
TGTGTTCAGTATTGCACACACACAACAAAATAAAAA [CACACA_site8017] | 9.44 ± 0.35
ATTAATAAGAAATATACACACATGGATAAATACATA [CACACA_site1872] | 9.07 ± 0.39
TTTCTTGCTACATGAAGTACACTTTCTATGACTCGT [XGTACX_site5583] | 8.81 ± 0.54
AAAAAAAAATTTTTAAAATTTAGAAAATTTAAAAAA [GTGCAC_negctrl_site649] | 7.99 ± 0.61
TAATAATGCAACCTCTGTACACAACATTATATCCAT [XGTACX_site7596] | 8.95 ± 0.46
TATATATAAGCGTGTACACATTCTGAGTGTTGTATA [CACACA_site4502] | 9.06 ± 0.38
ATATTTAATGTTAATTGTACATATTATATATATATA [XGTACX_site6095] | 8.77 ± 0.35
ATAATATTATTATAATGTACATATTTCGATATAAAT [XGTACX_site8808] | 8.7 ± 0.43
GATTATACAAAATATACACACGTGTAGACAAATATT [CACACA_site4785] | 9.37 ± 0.43
ATATATATTAATAGGTGTACATATAAAGTGTTATGT [XGTACX_site5464] | 8.93 ± 0.35
AAAAAAATATATATTACACACATATATACCTATATA [CACACA_site5688] | 8.95 ± 0.33

Sequence | gcPBM binding intensity (ln)
ACAAAAAATAATCAAAATGTATATATATAATATAAT [XGTACX_negctrl_site593] | 8.86 ± 0.47
TATTGAAGTTATAAAGTGCAGATAAATATGAGTTAT [GTGCAC_site9945] | 8.85 ± 0.52
AAATGCCATATAATTTTTCTTAAACATAATTGTATA [CACACA_negctrl_site1665] | 8.38 ± 0.43
ATTGTCTTCTCATATACACACTTTTATGACTATCTT [CACACA_site5696] | 9.21 ± 0.48
TGTGTAATTATATATAAGGAGAAAGAATTCATTTTT [CACACA_negctrl_site670] | 8.48 ± 0.49
ATTATCCATGCATTTACACACACACCCAAAAAAATT [CACACA_site4101] | 9.61 ± 0.15
AAAGGGGCATATATATGTACATATTATATATTTTGA [XGTACX_site2436] | 8.86 ± 0.37
TATGTGAATATAATCACACACAATACGGAAACCCAC [CACACA_site2725] | 9.51 ± 0.28
AAAGTCTCATTAAAATGTACAAAATTTTCAGCTGTA [XGTACX_site6296] | 8.48 ± 0.45
TAATTTTTAATTGTAGCATGCAGTATTTTTAAATAT [TGCATGCA_site140] | 8.46 ± 0.37
AATACATTGTCAAATTGTACAAATTATAGAACTATT [XGTACX_site2222] | 8.86 ± 0.4
TGTTTTTATATATATGCACACAATGTACAAGTATAC [CACACA_site3529] | 9.23 ± 0.35
CCATAAAAAGGATACACACACACACCCACATATATA [CACACA_site903] | 10.1 ± 0.32
ATAAATATGGAGCACACACACATAAACATACCTATA [CACACA_site6336] | 9.82 ± 0.3
GATCTACATGAAAGGACACACAAATATATATATATA [CACACA_site84] | 9.62 ± 0.35
TTAAAAATGATTGAATGTACAGATTAATATAATTTT [XGTACX_site7394] | 8.4 ± 0.57
TAATTTTTGAAACACACACACATATATATATATATA [CACACA_site94] | 9.885 ± 0.0071
ATAATAAGGTTAAGCACACATATTACAGATATAACT [CACACA_site5791] | 9.03 ± 0.42
AAATATTATGTGGCAAGTACATAAAGAAAATGCTTA [XGTACX_site3356] | 8.89 ± 0.56

Sequence | gcPBM binding intensity (ln)
AATAATAATAATAATAGTACATATTATGAATATGAT [XGTACX_site5730] | 8.81 ± 0.46
AAAAAAAAATATATATAAAATTAAAAAATGTAATAT [GTGCAC_negctrl_site581] | 8.62 ± 0.49
ATGGGTTGTTCAAATAGTACATATGTAGCCCACCAT [XGTACX_site3735] | 8.93 ± 0.39
ATTAAAAAAAAAAGTATACACACTTCTTAATGTCAA [CACACA_site1244] | 8.64 ± 0.35
TTATATCCCGTCCTTTATTAAAAAAATTTTTTTTCT [TGCATGCA_negctrl_site582] | 8.59 ± 0.52
AAAAAAGAATAGCACACACACATATATAAATATAAA [CACACA_site4518] | 9.69 ± 0.16
TTTTTTTTTTTTTGTGCATGTAGATTTATTGTTATA [TGCATGCA_site582] | 8.79 ± 0.39
TTTAAATATATATTTAGTACTTATTCTTAAAATTTT [XGTACX_site624] | 8.38 ± 0.5
AATTATACATACATATATATATTTATATATATATAT [GTGCAC_negctrl_site462] | 8.89 ± 0.39
GTAGAGGATTAAGAATGTACACATAAATACATATTT [XGTACX_site8874] | 8.8 ± 0.59
GTTACATACAGATACACACACATATATATATATATA [CACACA_site4652] | 10.2 ± 0.4
TTTTTTTTTTTTTTAATTAATTACCTTTGAATGTGT [CACACA_negctrl_site393] | 8.64 ± 0.57
TAATAATTTTATAAAGTGCATAAAAATAAAAATTTT | 8.42 ± 0.51
AACAAATAAACAAAATTGGAAAATAAAAATATCAAA [CACACA_negctrl_site1125] | 8.69 ± 0.47
TCGTATATGGATTTTGCACACAATTTTAATTTAAAT [CACACA_site4635] | 9.1 ± 0.4
ATGATTTGTCTGAAATGTACATATATATATATATAT [XGTACX_site5247] | 9.535 ± 0.021
GAAAAAATATATAAATGTACATATAATAATATCATA [XGTACX_site6788] | 8.82 ± 0.47
ATATATATTTTATTATGTACATATAAATATTACACA [XGTACX_site4062] | 8.7 ± 0.42
